From PubChem BioAssay AID624417 (National Center for Advancing Translational Sciences (NCATS), 2012)
In all, about 410,000 compounds went through this assay and about 6,400 (1.6%) were called active. Inconclusive results, whose numbers are uncertain, are shown with a selection of clear calls. The call rests on the fitted dose curve; in most records, active means well fitted inhibition curve with a large enough effect; inconclusive means small, poorly fitted or top-dose-only effect; inactive means no such curve, though single readings can be large or run the other way. Potencies of inconclusive entries are left out as doubtful fits.
Further: nearly all actives have a fitted effect of over 55% in size.
On the % scale 0 is the no-effect control and ±100 the full control effect; potency means the concentration at half of the fitted maximal effect; tags describe the fitted curve by direction and shape.

These molecules were tested against Glucagon-like peptide 1 receptor (Homo sapiens) (UniProt P43220) (assay: qHTS of GLP-1 Receptor Inverse Agonists (Inhibition Mode)). Settings: HEK293 GLP-1R CRE-luciferase, luminescence, 24 h, GLP-1R form is constitutively active; activity change, negative = inhibition: at 38.3 µM (top of the series) unless noted.
Chain of UniProt P43220 (P43220 whole entry, looked up): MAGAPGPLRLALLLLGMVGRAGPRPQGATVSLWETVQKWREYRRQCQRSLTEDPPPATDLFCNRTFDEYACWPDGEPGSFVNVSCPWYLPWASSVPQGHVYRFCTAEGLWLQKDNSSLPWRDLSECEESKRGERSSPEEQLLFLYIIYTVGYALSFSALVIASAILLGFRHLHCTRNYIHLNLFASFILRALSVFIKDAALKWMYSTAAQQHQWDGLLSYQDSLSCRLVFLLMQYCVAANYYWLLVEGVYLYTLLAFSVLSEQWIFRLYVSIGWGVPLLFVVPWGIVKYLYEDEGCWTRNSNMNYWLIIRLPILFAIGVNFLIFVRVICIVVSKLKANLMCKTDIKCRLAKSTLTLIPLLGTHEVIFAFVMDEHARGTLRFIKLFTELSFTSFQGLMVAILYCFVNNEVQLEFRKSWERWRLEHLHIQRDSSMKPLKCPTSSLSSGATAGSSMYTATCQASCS
In short: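 Readout was luciferase luminescence, measured 12 min after detection reagent at room temperature. Beforehand, GLP-1R reporter HEK293 cells had sat 12 h, then received compounds for 24 hr at 37 deg C.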
In the case of `CCN(CC)S(=O)(=O)c1cccc(C(=O)N2CCCc3ccccc32)c1`, the Potency is reported as inconclusive [inhibitor, partial curve, poor fit]. `CN1CCN(c2oc(-c3ccccc3)nc2S(=O)(=O)c2ccc(Br)cc2)CC1` was tested, and the Potency was inconclusive [inhibitor, single point]. For `CCOC(=O)N1CCC(N(CCN(C)C)C(=S)Nc2ccc(Oc3ccccc3)cc2)CC1`, the Potency was inconclusive [inhibitor, partial curve, poor fit]. In the case of `CCOC(=O)C1CCN(CCC(=O)Nc2ccc(C)cc2)CC1`, the Potency is reported as inconclusive [inhibitor, single point]. For `O=C(Nc1ccc(N2CCCCC2)c(S(=O)(=O)Nc2ccccc2Cl)c1)c1cccnc1`, the Potency was inconclusive [inhibitor, single point]. For `COc1ccc(C(=O)NCCSC2CCCCC2)cc1`, the Potency was inconclusive [inhibitor, partial curve, poor fit]. With `CC1CCCC(C)N1C(=O)CSc1nc2ccccc2s1` (stereo unspecified) the Potency was inconclusive [inhibitor, single point]. For `CCCCN(C(=O)CCC(=O)Nc1cc(C)on1)C(C(=O)NC1CCCC1)c1ccc(F)cc1` (stereo unspecified), the Potency was inconclusive [inhibitor, partial curve, poor fit]. With `Cc1ccccc1S(=O)(=O)Cc1ccc(C(=O)NCCN(CC(C)C)CC(C)C)o1` the Potency was inconclusive [inhibitor, partial curve, poor fit]. With `CCCCC(=O)Nc1ccc(C(=O)Nc2ccc(OC)cc2[N+](=O)[O-])cc1` the Potency was inconclusive [inhibitor, partial curve, poor fit]. For `CN(C)c1ccc(NC(=O)CN2CCC(O)(c3ccccc3)CC2)cc1`, the “activity change, negative = inhibition” value was inactive: -14%. `CCCCCCN1CCN(C2CN(Cc3ccccc3)S(=O)(=O)C2)CC1` (stereo unspecified) was tested, and the Potency was inconclusive [inhibitor, partial curve, poor fit]. In the case of `CC1CCN(CCNC(=O)c2ccc3c(=O)n(Cc4ccc(Cl)cc4)c(=S)[nH]c3c2)CC1`, the Potency is reported as inconclusive [inhibitor, partial curve, poor fit]. For `CC(C)NC(=S)NC(c1ccccc1)(c1ccccc1)c1ccccc1`, the Potency was inconclusive [inhibitor, partial curve, poor fit]. With `CCc1nc2nc(C)cc(Nc3cc(C)ccc3C)n2n1` the “activity change, negative = inhibition” value was inactive: -11.2%. For `O=C1CSC(c2cn(-c3ccccc3)nc2-c2cc3ccccc3oc2=O)N1Cc1ccccc1` (stereo unspecified), the “activity change, negative = inhibition” value was inactive: -26.8%. For `COc1ccc(OC)c(CN2CCN(c3ccc(S(=O)(=O)N4CCCC4)cn3)CC2)c1`, the Potency was inconclusive [inhibitor, partial curve, poor fit]. `O=C(CNC(=O)c1cccc(-n2cccc2)c1)Nc1ccccc1Br` was tested, and the “activity change, negative = inhibition” value was inactive: 4.34%. In the case of `Cc1cc(NC(=O)CSc2nc3cc(Cl)ccc3o2)no1`, the Potency is reported as active: 2.51 µM. With `Cc1cccc(OCc2nnc(-c3ccc(F)cc3)o2)c1` the Potency was inconclusive [inhibitor, single point]. `Cc1c(C(=O)NCc2cccc(C(F)(F)F)c2)sc(=O)n1Cc1ccccc1F` was tested, and the Potency was inconclusive [inhibitor, single point]. `CCOC(=O)C1CCN(C(=O)COc2ccc(Br)cc2Br)CC1` was tested, and the Potency was inconclusive [inhibitor, single point]. `CC(C)COc1ccc(C(=O)N(CC(=O)Nc2ccccc2C(F)(F)F)Cc2ccco2)cc1` was tested, and the Potency was active: 4.47 µM. In the case of `Cc1ccc(Cn2ncn3c(cc4ccccc43)c2=O)cc1`, the Potency is reported as inconclusive [inhibitor, single point]. `CCn1c(SCC(=O)Nc2cc(C(C)(C)C)nn2-c2ccccc2)nnc1-c1cccs1` was tested, and the Potency was inconclusive [inhibitor, partial curve, poor fit]. `CCOC(=O)/C(=C\C=C1/Sc2ccccc2N1CC)C(C)=O` was tested, and the “activity change, negative = inhibition” value was inactive: 38.6%. With `COc1cc(NC(=O)C2CCCCC2)c(OC)cc1NC(=O)c1ccccc1` the Potency was inconclusive [inhibitor, partial curve, poor fit]. For `CCCCN(c1ccccc1)c1ncnc(N)c1[N+](=O)[O-]`, the Potency was inconclusive [inhibitor, full curve, poor fit]. In the case of `Cc1cccc(OCc2nnc(SCC(=O)N3CCc4ccccc43)n2C)c1`, the Potency is reported as inconclusive [inhibitor, single point]. In the case of `CN(Cc1ccccc1)S(=O)(=O)c1nnc(NC(=O)c2ccccc2Cl)s1`, the “activity change, negative = inhibition” value is reported as inactive: -27.3%. In the case of `CCCOC(=O)c1ccc(Oc2c(-c3ccc(OCC)cc3O)n[nH]c2C)cc1`, the Potency is reported as inconclusive [inhibitor, partial curve, poor fit]. With `Cc1cccc(-c2nnc(SCC(=O)Nc3nc4c(s3)CCCC4)n2C)c1` the Potency was inconclusive [inhibitor, partial curve, poor fit]. For `Cc1cccc(NC(=O)c2cccc(C(F)(F)F)c2)c1`, the Potency was inconclusive [inhibitor, partial curve, poor fit]. With `COc1cccc(/C=N/n2c(SC)nnc2-c2ccccc2)c1O` the Potency was inconclusive [inhibitor, partial curve, poor fit]. In the case of `CSc1ccc(/C=N/N2CCN(Cc3ccc(C)cc3C)CC2)cc1`, the “activity change, negative = inhibition” value is reported as inactive: -18.2%. In the case of `COc1ccc(-c2cn(Cc3ccc(C(=O)c4ccccc4)cc3)nn2)cc1`, the Potency is reported as inconclusive [inhibitor, partial curve, poor fit]. In the case of `CN1C(=O)c2ccccc2N(C)C1c1cccs1` (stereo unspecified), the “activity change, negative = inhibition” value is reported as inactive: -11.8%. In the case of `COc1ccc2c(c1)c(CC(=O)Nc1cc(C)ccc1C)c(C)n2C(=O)c1ccc(Cl)cc1`, the Potency is reported as inconclusive [inhibitor, full curve, poor fit]. With `O=C(NCc1ccc(Cl)cc1)N1CCN(Cc2ccccc2)CC1` the Potency was inconclusive [inhibitor, partial curve, poor fit]. For `CC(C)Cn1c(SCC(=O)NC2CC2)nc2ccc(Cl)cc2c1=O`, the Potency was inconclusive [inhibitor, full curve]. In the case of `CC(Sc1nc2ccccc2s1)C(=O)NCc1ccc2c(c1)OCO2` (stereo unspecified), the Potency is reported as inconclusive [inhibitor, single point].
